This is one part of the list. The list includes weakly bound sequences.
Target: T1, MBP-FoxP3dN (UniProt Q99JB6)
T1 sequence: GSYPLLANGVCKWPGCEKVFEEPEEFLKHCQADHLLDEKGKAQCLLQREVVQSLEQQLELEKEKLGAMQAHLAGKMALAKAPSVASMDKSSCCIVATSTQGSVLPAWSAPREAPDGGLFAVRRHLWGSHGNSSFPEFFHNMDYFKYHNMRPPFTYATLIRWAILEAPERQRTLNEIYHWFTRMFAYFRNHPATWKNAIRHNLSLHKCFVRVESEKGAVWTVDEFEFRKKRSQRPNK
Test: PD-seq (MBP pull-down with sequencing)
Settings: 20 mM Tris-HCl pH 7.5, 100 mM NaCl, 1.5 mM MgCl2, 0.4 uM protein, 0.1 uM dsDNA library, 30 min, room temperature, amylose pull-down; high values mean tight binding; double strand, one strand shown

Row | Sequence | binding signal (RPM ratio (pull-down/input))
1 | GATGATTGTTCTCCCAGCTGATGAATTGGCCTGTTCGAGTAAACAAATTTTCCTAATCTTTCTGTTCAAGCGCCATCTAC | 0.51
2 | GATGATTGTTCTCCCAGCTGATGAATTCTGTGGTTCGAGTAAACAAATTTTCCTAATCTTTCTGTTCAAGCGCCATCTAC | 2.74
3 | GATGATTGTTCTCCCAGCTGATGAATTTCCAGGATCGAGTAAACAAATTTTCCTAATCTTTCTGTTCAAGCGCCATCTAC | 0.169
4 | GATGATTGTTCTCCCAGCTGATGAATTGTTGCTATCGAGTAAACAAATTTTCCTAATCTTTCTGTTCAAGCGCCATCTAC | 2.98
5 | GATGATTGTTCTCCCAGCTGATGAATTAGCTGAATCGAGTAAACAAATTTTCCTAATCTTTCTGTTCAAGCGCCATCTAC | 0.251
6 | GATGATTGTTCTCCCAGCTGATGAATTATAGTCCTCGAGTAAACAAATTTTCCTAATCTTTCTGTTCAAGCGCCATCTAC | 0.456
7 | GATGATTGTTCTCCCAGCTGATGAATTGTAAGCGTCGAGTAAACAAATTTTCCTAATCTTTCTGTTCAAGCGCCATCTAC | 0.753
8 | GATGATTGTTCTCCCAGCTGATGAATTCACGCTCTCGAGTAAACAAATTTTCCTAATCTTTCTGTTCAAGCGCCATCTAC | 0.686
9 | GATGATTGTTCTCCCAGCTGATGAATTGTGTTGCTCGAGTAAACAAATTTTCCTAATCTTTCTGTTCAAGCGCCATCTAC | 4.64
10 | GATGATTGTTCTCCCAGCTGATGAATTAATAGCTTCGAGTAAACAAATTTTCCTAATCTTTCTGTTCAAGCGCCATCTAC | 0.556
11 | GATGATTGTTCTCCCAGCTGATGAATTCGGGGCCTCGAGTAAACAAATTTTCCTAATCTTTCTGTTCAAGCGCCATCTAC | 0.449
12 | GATGATTGTTCTCCCAGCTGATGAATTGAGGCCTTCGAGTAAACAAATTTTCCTAATCTTTCTGTTCAAGCGCCATCTAC | 1.6
13 | GATGATTGTTCTCCCAGCTGATGAATTCGCCATGTCGAGTAAACAAATTTTCCTAATCTTTCTGTTCAAGCGCCATCTAC | 0.854
14 | GATGATTGTTCTCCCAGCTGATGAATTAACCATGTCGAGTAAACAAATTTTCCTAATCTTTCTGTTCAAGCGCCATCTAC | 0.325
15 | GATGATTGTTCTCCCAGCTGATGAATTTGCGGGTTCGAGTAAACAAATTTTCCTAATCTTTCTGTTCAAGCGCCATCTAC | 1
16 | GATGATTGTTCTCCCAGCTGATGAATTCCGCGGTTCGAGTAAACAAATTTTCCTAATCTTTCTGTTCAAGCGCCATCTAC | 0.597
17 | GATGATTGTTCTCCCAGCTGATGAATTTGCTTATTCGAGTAAACAAATTTTCCTAATCTTTCTGTTCAAGCGCCATCTAC | 6.84
18 | GATGATTGTTCTCCCAGCTGATGAATTACCGAGTTCGAGTAAACAAATTTTCCTAATCTTTCTGTTCAAGCGCCATCTAC | 0.417
